Out of some 150,000 compounds screened, about 540 (0.36%) showed an effect of 50% or more. Some of the results follow.

For this assay, the system named is Plasmodium falciparum. Put plainly: Primary screen in NF54 nanoGlo assay, in single point, at 2uM, 72h; a lower Z score goes with more inhibition. The class given is functional, Erythrocyte. As to conditions: timepoint 72 hour.
As to `CC(C)C(=O)NCCc1ccc(Cl)s1`, the “% Inhibition” value is -6% and the Z score was 1.14.

For `Cc1ccc(CN2CCN(Cc3cc(=O)n4ncnc4[nH]3)C[C@@H]2CCO)o1`, the “% Inhibition” value is -5% and the Z score is listed as 0.98.

Turning to `Clc1cnc(NCCCO[C@H]2CCOC2)c(Cl)c1`, the “% Inhibition” value was -7% and the Z score came to 1.14.

Consider `CCCc1ncc(CN2CCC(Oc3cccc(F)c3)(C(=O)O)CC2)cn1`, for which the “% Inhibition” value was -2% and the Z score turned out to be 0.35.

As for `CCN(CC)[C@@H](CNC(=O)c1ccc2c(c1)NC(=O)CN2C)c1ccco1`, the “% Inhibition” value amounted to 3% and the Z score is listed as -0.35.

For `C[C@@H]1Oc2ccc(NC(=O)c3cc(Cl)c4c(c3)OCCCO4)cc2NC1=O`, the “% Inhibition” value is given as -14% and the Z score came to 1.92.

Regarding `CC1(C)CN(Cc2nncs2)c2cc(F)ccc21`, the “% Inhibition” value was -4% and the Z score was determined as 0.34.

`O=C1c2cccnc2[C@@H](Nc2ccc(F)cc2Cl)N1c1ccccc1`: the “% Inhibition” value is recorded as -9% and the Z score was 1.11.

Consider `C[C@H](NCCC(=O)N1CCOCC1)c1cc2cc(Cl)ccc2o1`, for which the “% Inhibition” value came out at 5% and the Z score is given as -0.49.

`CC(C)[C@@H](C)NC(=O)N1CCC(n2cc(CN3[C@H](C)CCC[C@@H]3C)nn2)CC1`: the “% Inhibition” value was -10% and the Z score was determined as 1.35.

Regarding `O=C(C1CCOCC1)N1CC[C@@](F)(c2cccc(C(F)(F)F)c2)C1`, the “% Inhibition” value is listed as -13% and the Z score turned out to be 1.66.

Take `CC(C)n1cc(NC(=O)[C@H](Cc2ccccc2)N(C)C)cn1`: the “% Inhibition” value is on record as -16% and the Z score is listed as 3.04.

For `COc1cc(C)ccc1OCc1nc(C(=O)N2CCCCCCC2)co1`, the “% Inhibition” value is reported as -20% and the Z score is recorded as 2.71.

Regarding `CN1CCCC[C@@H]1CNC(=O)c1ccc2nc(-c3ccc(F)cc3)cn2c1`, the “% Inhibition” value is -5% and the Z score was 0.91.

`O=C(c1cc(-c2ccccn2)nc2c(Cl)cccc12)N1CCN(C(=O)[C@@H]2CCCO2)CC1`: the “% Inhibition” value is listed as -13% and the Z score was 1.65.

Take `CCc1cc(N2CCCN(S(C)(=O)=O)CC2)n2nccc2n1`: the “% Inhibition” value is -2% and the Z score is 0.32.

For the compound `CCc1nc(C)c(CNC(=O)c2ccc3nc(-c4ccccc4)cn3c2)s1`, the “% Inhibition” value was -21% and the Z score worked out at 2.66.

As for `Cc1nc(-c2nc(-c3ncoc3C)n([C@H]3CCS(=O)(=O)C3)n2)cs1`, the “% Inhibition” value is -25% and the Z score stood at 2.27.

In the case of `Cc1nn(C)c(C)c1CNC(=O)c1nn(C)c2c1COCC2`, the “% Inhibition” value is listed as -11% and the Z score is listed as 1.44.

In the case of `Cc1cccc(O[C@@H](C)c2nnc(-c3ccc4c(c3)nnn4C)o2)c1C`, the “% Inhibition” value came to 8% and the Z score is -1.08.

For `O=C(Nc1ccc(C(=O)c2ccccc2)cc1NC(=O)c1ccc(Cl)cc1)c1ccc(Cl)cc1`, the “% Inhibition” value is -6% and the Z score stood at 0.77.

Regarding `CCC(C(=O)NCC(C)c1ccccc1)n1c2ccccc2c2cnn(C)c(=O)c21` (stereo unspecified), the “% Inhibition” value is recorded as -7% and the Z score was found to be 1.27.

Consider `CC(C)(C)OC(=O)N1CCC(CO)CC1`, for which the “% Inhibition” value is given as -1% and the Z score is given as 0.22.

On to `Cc1nnc2sc(-c3ccc(CNC(=O)c4ccc(Br)cc4)cc3)nn12`, for which the “% Inhibition” value came out at 0% and the Z score is -0.01.

As to `Cc1ccc(Cl)c(NS(=O)(=O)c2cc(-c3[nH]ncc3C(=O)N(C)C)oc2C)c1`, the “% Inhibition” value is -13% and the Z score is on record as 2.06.

On to `COc1cnc(N(C)C[C@H]2CCCOC2)c(Br)c1`, for which the “% Inhibition” value is reported as -1% and the Z score amounted to 0.15.

With `CCN(C1CCCCC1)S(C)(=O)=O`, the “% Inhibition” value was -9% and the Z score was 0.98.

For the compound `O=C(CN1CCN(c2ccc3c(c2)OCCO3)C1=O)N1CCN(C(=O)[C@@H]2CCCO2)CC1`, the “% Inhibition” value is 3% and the Z score is on record as -0.53.

For `CC(C(=O)N(C)C)S(=O)(=O)C(C)c1cccc(Br)c1` (stereo unspecified), the “% Inhibition” value is -1% and the Z score is 0.16.

As for `COCCNS(=O)(=O)c1cnc(N(C)CCOC)c(Cl)c1`, the “% Inhibition” value is reported as 4% and the Z score is given as -0.43.

Turning to `Cc1c(Cl)cccc1NC(=O)CN1C(=O)CCn2nc(-c3cn(C)c4ccccc34)cc21`, the “% Inhibition” value is listed as 4% and the Z score is -0.66.

Turning to `COCCNS(=O)(=O)c1c[nH]c(C(=O)OC2CCCCCCC2)c1`, the “% Inhibition” value is given as -7% and the Z score is on record as 1.06.

Regarding `CC(C)CC(=O)Nc1ccc(N2CCCN(C(=O)c3ccccc3F)CC2)c(C(=O)NCc2ccc(F)cc2)c1`, the “% Inhibition” value is on record as -3% and the Z score is 0.49.

On to `Cc1cc(C)n([C@H]2CC(=O)[C@@H]3OCC2O3)n1`, for which the “% Inhibition” value came to 34% and the Z score was -3.81.

Turning to `O=C(NCc1ccnc(-c2ccncc2)c1)c1ccncc1`, the “% Inhibition” value is listed as 2% and the Z score is -0.25.

As for `Cc1cc(CS(=O)(=O)NC2(c3ccc(Br)cc3)CC2)on1`, the “% Inhibition” value is -5% and the Z score came out at 0.89.

On to `CC(C)c1nc(CCN2Cc3ncccc3C2=O)no1`, for which the “% Inhibition” value is reported as -5% and the Z score is on record as 0.49.

`Cc1cccc(-c2ncccc2CNC(=O)CC2CCCC2)c1`: the “% Inhibition” value is 2% and the Z score is -0.26.

As to `COCc1ncc(-c2noc(C3CC3C)n2)c(N)n1` (stereo unspecified), the “% Inhibition” value is -16% and the Z score was 2.53.

As to `CS(=O)(=O)N(CCCN1CCOCC1)[C@H]1CCN(C(=O)Nc2ccccc2F)C1`, the “% Inhibition” value is -7% and the Z score stood at 0.88.

Take `COC(=O)[C@H]1CCc2nnc(C(=O)NCc3ccc(Cl)cc3)n2C1`: the “% Inhibition” value is given as -12% and the Z score stood at 1.98.

Take `CC1CCC(N(C)CC(=O)NC2CCCC2)CC1` (stereo unspecified): the “% Inhibition” value is -6% and the Z score amounted to 0.77.

Regarding `Cc1nn(-c2ccccc2)c2sc(C(=O)N3CCC3)cc12`, the “% Inhibition” value came to 27% and the Z score is on record as -3.02.

For the compound `Cc1nc(CN2C(=O)COc3cc(S(=O)(=O)N4CCCC4)c(Cl)cc32)no1`, the “% Inhibition” value is listed as -14% and the Z score came to 1.65.

Turning to `Cc1cnc(CN2C[C@]3(CCCN(C(=O)c4ccn(C)n4)C3)CCC2=O)cn1`, the “% Inhibition” value is -5% and the Z score came to 0.75.

For the compound `O=C(N[C@@]12COC[C@@H]1C2)c1cc2nccc(C(F)(F)F)n2n1`, the “% Inhibition” value is listed as -11% and the Z score worked out at 2.02.

As to `O=C(O)CC1(NCc2cc(Br)cc3cccnc23)CCOCC1`, the “% Inhibition” value is reported as 0% and the Z score turned out to be 0.06.

`Nc1c(C(=O)Nc2ccc3c(c2)OCCO3)sc2ncccc12`: the “% Inhibition” value came to 1% and the Z score was -0.11.

With `CCc1nc(-c2ccccc2)nc(N2CCN(C(C)=O)CC2)c1Cc1ccc(F)cc1`, the “% Inhibition” value is given as -12% and the Z score is 1.44.

For `O=C(Cn1cnc2c(-c3ccc(F)cc3)nsc2c1=O)N1CCN(c2ccccc2F)CC1`, the “% Inhibition” value was -9% and the Z score came to 1.39.

Turning to `CC(C)CCNC(=O)N1CCC(Oc2nc(C(C)C)nc3c2CCOCC3)CC1`, the “% Inhibition” value was -10% and the Z score came to 1.58.

Regarding `Cn1c(C(=O)Nc2ccc(F)c(Cl)c2)cc2occc21`, the “% Inhibition” value is -2% and the Z score came to 0.37.

Regarding `CCCCn1ccc(=O)c(OCc2ccccc2)c1C`, the “% Inhibition” value is -9% and the Z score turned out to be 1.68.

The values are drawn from ChEMBL document CHEMBL4888484, “Replenishing the malaria drug discovery pipeline: Screening and hit evaluation of the MMV Hit Generation Library 1 (HGL1) against asexual blood stage Plasmodium falciparum ,using a nano luciferase reporter read-out” (2022).
